# In article PMC4081100:
# This is a selection; strong and weak results do not stand in their true shares. For some of these results: At the low end of the ranking the order means little. The list shows a part of the results. For some of these results: The source does not settle which construct or isoform was used.
# Assays:
# Assay in all cases: universal protein binding microarray (PBM)
# Settings in all cases: transcription factors of Arabidopsis thaliana; high values mean tight binding; most listed sequences are background and not binding sites; double strand, one strand shown
# [1] = biological target: T1, GST-ANAC092(1-176) (UniProt Q9FKA0)
# T1 sequence: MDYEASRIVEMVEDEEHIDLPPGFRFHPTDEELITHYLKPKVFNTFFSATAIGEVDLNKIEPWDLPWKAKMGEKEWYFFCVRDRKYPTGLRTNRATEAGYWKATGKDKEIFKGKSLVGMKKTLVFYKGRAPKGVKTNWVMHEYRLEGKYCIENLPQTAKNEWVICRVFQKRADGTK
# [2] = biological target: GST-NTL6(1-168) (UniProt Q9SCK6)
# [3] = biological target: T2, GST-ANAC019 NAC domain (UniProt Q9C932)
# T2 sequence: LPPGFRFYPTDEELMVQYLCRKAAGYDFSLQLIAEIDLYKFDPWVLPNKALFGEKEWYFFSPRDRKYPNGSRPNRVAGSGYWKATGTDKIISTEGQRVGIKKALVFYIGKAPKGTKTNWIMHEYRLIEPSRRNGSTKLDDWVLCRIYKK
# [4] = biological target: T3, GST-ANAC055(1-171) (UniProt Q9LDY8)
# T3 sequence: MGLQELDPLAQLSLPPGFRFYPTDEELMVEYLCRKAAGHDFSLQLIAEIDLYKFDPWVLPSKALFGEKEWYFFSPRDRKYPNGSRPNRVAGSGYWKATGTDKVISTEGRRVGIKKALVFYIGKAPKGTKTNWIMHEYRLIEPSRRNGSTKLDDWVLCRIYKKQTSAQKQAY
# [5] = biological target: T4, GST-ATAF1 NAC domain (UniProt Q39013)
# T4 sequence: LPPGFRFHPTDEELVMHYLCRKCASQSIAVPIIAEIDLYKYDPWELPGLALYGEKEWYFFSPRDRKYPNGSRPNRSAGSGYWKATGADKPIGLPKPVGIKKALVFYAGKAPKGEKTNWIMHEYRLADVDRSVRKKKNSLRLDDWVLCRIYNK
# [6] = biological target: T5, GST-ANAC092(1-285) full length (UniProt Q9FKA0)
# T5 sequence: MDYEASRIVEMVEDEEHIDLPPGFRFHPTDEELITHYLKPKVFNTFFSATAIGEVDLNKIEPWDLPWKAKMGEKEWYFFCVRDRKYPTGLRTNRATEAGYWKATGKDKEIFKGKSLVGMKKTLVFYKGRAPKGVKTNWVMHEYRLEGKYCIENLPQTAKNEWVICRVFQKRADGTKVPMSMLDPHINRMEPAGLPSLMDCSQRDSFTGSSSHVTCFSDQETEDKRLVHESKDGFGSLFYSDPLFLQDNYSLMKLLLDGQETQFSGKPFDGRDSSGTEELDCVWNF
# [7] = biological target: T6, GST-NAP(1-166) (UniProt O49255)
# T6 sequence: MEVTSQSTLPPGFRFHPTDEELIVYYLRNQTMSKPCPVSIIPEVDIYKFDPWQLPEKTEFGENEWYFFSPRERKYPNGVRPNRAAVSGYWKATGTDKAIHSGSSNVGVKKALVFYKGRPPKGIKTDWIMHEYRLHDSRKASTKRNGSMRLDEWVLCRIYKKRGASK
# [8] = biological target: T7, GST-NST2(1-184) (UniProt Q9M274)
# T7 sequence: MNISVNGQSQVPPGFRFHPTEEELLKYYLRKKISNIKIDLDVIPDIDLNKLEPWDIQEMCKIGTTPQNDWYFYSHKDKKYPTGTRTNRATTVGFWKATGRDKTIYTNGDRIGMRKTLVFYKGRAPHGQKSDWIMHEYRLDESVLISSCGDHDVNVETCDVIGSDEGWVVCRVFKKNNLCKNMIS
# [9] = biological target: T8, GST-NTL8 NAC domain (UniProt Q9XIN7)
# T8 sequence: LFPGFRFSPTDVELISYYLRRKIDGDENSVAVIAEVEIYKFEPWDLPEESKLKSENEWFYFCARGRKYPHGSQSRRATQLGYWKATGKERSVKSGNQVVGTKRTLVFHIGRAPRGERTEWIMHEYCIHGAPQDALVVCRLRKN
# [10] = biological target: T9, GST-SND1(1-203) (UniProt Q9LPI7)
# T9 sequence: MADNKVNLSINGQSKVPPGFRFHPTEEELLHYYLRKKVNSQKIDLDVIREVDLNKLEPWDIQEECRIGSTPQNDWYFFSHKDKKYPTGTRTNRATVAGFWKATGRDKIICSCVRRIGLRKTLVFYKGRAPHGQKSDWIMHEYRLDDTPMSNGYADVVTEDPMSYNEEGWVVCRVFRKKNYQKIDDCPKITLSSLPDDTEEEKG
# [11] = biological target: T10, GST-VND3 NAC domain (UniProt Q9FH59)
# T10 sequence: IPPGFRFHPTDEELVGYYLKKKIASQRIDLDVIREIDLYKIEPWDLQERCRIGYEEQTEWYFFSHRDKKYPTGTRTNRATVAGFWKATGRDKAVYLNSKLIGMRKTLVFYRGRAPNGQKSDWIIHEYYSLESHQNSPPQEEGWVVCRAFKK
# [12] = biological target: T11, GST-VND7 NAC domain (UniProt Q9C8W9)
# T11 sequence: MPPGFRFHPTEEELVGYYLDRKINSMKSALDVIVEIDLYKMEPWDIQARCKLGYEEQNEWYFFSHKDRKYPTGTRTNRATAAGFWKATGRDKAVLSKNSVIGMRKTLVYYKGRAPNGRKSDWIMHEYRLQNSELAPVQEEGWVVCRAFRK
# [13] = biological target: T12, GST-VOZ2 (Arabidopsis thaliana) (UniProt Q9SLB9)
# T12 sequence: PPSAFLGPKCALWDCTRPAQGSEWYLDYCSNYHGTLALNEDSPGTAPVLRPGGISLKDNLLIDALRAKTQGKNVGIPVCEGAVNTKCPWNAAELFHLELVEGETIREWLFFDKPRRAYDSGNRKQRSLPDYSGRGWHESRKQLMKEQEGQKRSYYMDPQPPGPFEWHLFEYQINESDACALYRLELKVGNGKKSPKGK
# [14] = biological target: GST-WRKY1(266-371) (UniProt Q9SI37)
Sequence,binding signal [1],binding signal [2],binding signal [3],binding signal [4],binding signal [5],binding signal [6],binding signal [7],binding signal [8],binding signal [9],binding signal [10],binding signal [11],binding signal [12],binding signal [13],binding signal [14]
GGGTCAGA,-0.147 E-score,-0.157 E-score,-0.0324 E-score,-0.222 E-score,-0.173 E-score,-0.18 E-score,-0.114 E-score,-0.174 E-score,0.0446 E-score,-0.0596 E-score,-0.171 E-score,-0.0695 E-score,-0.0219 E-score,0.432 E-score
AGTCAGAG,-0.0419 E-score,-0.0523 E-score,-0.0563 E-score,-0.186 E-score,-0.101 E-score,-0.0165 E-score,-0.0701 E-score,-0.0999 E-score,-0.0329 E-score,-0.00899 E-score,-0.126 E-score,-0.106 E-score,-0.121 E-score,0.44 E-score
ATTCCCCC,-0.0467 E-score,0.146 E-score,-0.00677 E-score,-0.109 E-score,-0.235 E-score,-0.0125 E-score,-0.0556 E-score,-0.0648 E-score,0.402 E-score,-0.129 E-score,-0.191 E-score,-0.187 E-score,0.0523 E-score,-0.288 E-score
ATTGACCG,0.00914 E-score,-0.124 E-score,-0.0649 E-score,-0.0265 E-score,-0.0867 E-score,–,-0.0919 E-score,-0.0768 E-score,-0.0573 E-score,0.0249 E-score,-0.0767 E-score,-0.142 E-score,0.0684 E-score,0.487 E-score
GCAGTCAA,0.0483 E-score,0.034 E-score,-0.00272 E-score,-0.00632 E-score,–,0.03 E-score,–,-0.0781 E-score,0.0556 E-score,-0.0791 E-score,-0.155 E-score,0.0402 E-score,0.0022 E-score,0.478 E-score
ACGACCAG,-0.0588 E-score,-0.152 E-score,-0.0712 E-score,-0.0654 E-score,-0.139 E-score,-0.0464 E-score,-0.0873 E-score,-0.162 E-score,-0.117 E-score,-0.13 E-score,-0.137 E-score,-0.152 E-score,-0.0999 E-score,0.403 E-score
CAGGTCAG,-0.0831 E-score,-0.143 E-score,-0.0327 E-score,-0.189 E-score,-0.141 E-score,-0.115 E-score,-0.0572 E-score,-0.132 E-score,0.0212 E-score,-0.0688 E-score,-0.059 E-score,-0.0886 E-score,0.00107 E-score,0.418 E-score
GGCGGTCA,-0.115 E-score,-0.108 E-score,-0.00971 E-score,-0.266 E-score,-0.281 E-score,-0.235 E-score,-0.0795 E-score,-0.208 E-score,-0.122 E-score,-0.194 E-score,-0.257 E-score,-0.219 E-score,-0.127 E-score,0.428 E-score
TCGGGTCA,-0.0333 E-score,-0.13 E-score,-0.0407 E-score,-0.0604 E-score,-0.108 E-score,-0.00314 E-score,-0.0435 E-score,0.0293 E-score,-0.0372 E-score,-0.0975 E-score,-0.149 E-score,-0.0943 E-score,-0.0202 E-score,0.434 E-score
CAAGGTCA,-0.1 E-score,-0.0365 E-score,-0.0405 E-score,-0.0913 E-score,-0.165 E-score,-0.0623 E-score,-0.0376 E-score,-0.0763 E-score,-0.0104 E-score,-0.0332 E-score,-0.0954 E-score,-0.19 E-score,-0.0846 E-score,0.425 E-score
CTCGTCAA,-0.00834 E-score,-0.0323 E-score,0.0225 E-score,0.0602 E-score,–,-0.0191 E-score,–,0.0192 E-score,-0.0536 E-score,0.0408 E-score,0.0246 E-score,0.0481 E-score,0.0118 E-score,0.424 E-score
GGTCTGAC,-0.152 E-score,-0.244 E-score,-0.043 E-score,-0.195 E-score,-0.15 E-score,-0.146 E-score,-0.171 E-score,-0.186 E-score,-0.155 E-score,-0.15 E-score,-0.0102 E-score,-0.0685 E-score,-0.0264 E-score,0.441 E-score
